Data reported in PubChem BioAssay AID1461 (National Center for Advancing Translational Sciences (NCATS), 2008).
Hit rate of the full screen: of about 220,000 compounds, about 2,300 (1%) were called active. This list was built around the results that the source calls inconclusive (neither active nor inactive); the mix of calls is not that of the screen. The call rests on the fitted dose curve; in most records, active means well fitted inhibition curve with a large enough effect; inconclusive means small, poorly fitted or top-dose-only effect, or effect the other way; inactive means no such curve, though single readings can be large or run the other way. Potencies of inconclusive entries are left out as doubtful fits.

Biological target: Neuropeptide S receptor (Homo sapiens) (UniProt Q6W5P4)
Experiment: qHTS Assay for Antagonists of the Neuropeptide S Receptor: cAMP Signal Transduction; further: nearly all actives have a fitted effect of over 50% in size
Details: CHO-NPSR cells, cAMP TR-FRET, antagonist mode; series mostly up to 38.3 µM
Potency means the concentration at half of the fitted maximal effect; tags describe the fitted curve by direction and shape.

Sequence of UniProt Q6W5P4 (Q6W5P4 whole entry, looked up): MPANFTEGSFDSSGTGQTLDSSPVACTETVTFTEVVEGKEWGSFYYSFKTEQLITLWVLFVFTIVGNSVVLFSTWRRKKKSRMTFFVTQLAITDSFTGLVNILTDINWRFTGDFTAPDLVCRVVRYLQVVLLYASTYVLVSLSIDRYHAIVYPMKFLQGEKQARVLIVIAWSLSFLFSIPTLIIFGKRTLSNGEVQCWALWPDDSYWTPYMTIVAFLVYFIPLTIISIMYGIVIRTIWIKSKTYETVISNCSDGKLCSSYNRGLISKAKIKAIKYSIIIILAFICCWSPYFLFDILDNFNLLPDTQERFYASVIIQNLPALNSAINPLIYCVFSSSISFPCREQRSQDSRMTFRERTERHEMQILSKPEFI

SMILES	Potency
COc1ccc(-c2ccnc3nc(-n4cccc4)nn23)cc1	inconclusive [inhibitor, partial curve]
Cc1cc(C)n(C(=O)c2ccc(NC(=O)C3COc4ccccc4O3)cc2)n1 (stereo not given)	inconclusive [inhibitor, single point]
CCN(CC)C(=O)C1CCCN(c2ccc([N+](=O)[O-])cc2/C=N/NC(=O)c2cccc(Br)c2)C1 (stereo not given)	inconclusive [inhibitor, full curve]
C=CCCN(C(CC(C)C)C(=O)OC)S(=O)(=O)c1ccccc1Br (stereo not given)	inconclusive [inhibitor, single point]
CCO[C@@H]1OC(C(=O)Nc2ccccc2)=C[C@H](c2ccc(Br)cc2)[C@H]1CCCO	inconclusive [activator, partial curve]
CN1CCN(c2nc3ccccn3c(=O)c2/C=C(\C#N)S(=O)(=O)c2ccccc2)CC1	inactive
CCSC1=C(C#N)C(c2ccccc2Cl)CC(=O)N1 (stereo not given)	inactive
COc1cc(CNCCSc2nnnn2C)cc(Br)c1OCc1ccc(F)cc1	inconclusive [inhibitor, single point]
CN(CCc1ccccn1)C1CC(=O)N(c2ccc(Cl)cc2)C1=O (stereo not given)	inactive
CC(C)Cn1c(SCC(=O)Nc2ncccn2)nc2ccccc21	inactive
Cc1ccc(C(C)NC(=O)/C(C#N)=C\c2c(C)[nH]c3ccccc23)cc1 (stereo not given)	inconclusive [inhibitor, single point]
O=C(CCc1nc(-c2ccccc2Cl)no1)NCc1ccco1	inconclusive [inhibitor, single point]
O=C1CCN(Cc2ccccc2)S(=O)(=O)c2ccccc21	inactive
Cc1cc(/C=C(/C#N)c2cccc(F)c2)c(C)n1-c1cccnc1	inconclusive [inhibitor, single point]
OC(COC(c1ccc(Cl)cc1)c1ccc(Cl)cc1)CN1CCN(c2ccccn2)CC1 (stereo not given)	inactive
COc1ccc(/C=C2\CN(Cc3ccccc3)C/C(=C\c3ccc(OC)cc3OC)C2=O)c(OC)c1	inconclusive [inhibitor, partial curve]
CCC(C)(C)NC(=O)C(c1ccco1)N(C(=O)Cn1nnc2ccccc21)c1ccc2c(c1)OCO2 (stereo not given)	inactive
Cc1ccc(S(=O)(=O)N2CCN(S(=O)(=O)c3ccc(C)cc3)C2c2ccccc2)cc1	inconclusive [inhibitor, single point]
O=C(c1cccc(Cl)c1)N1CCN(c2ncnc3c2cnn3-c2ccccc2)CC1	inactive
CCCc1nnc(NC(=O)c2cccc(OC)c2)s1	inconclusive [inhibitor, partial curve, poor fit]
CCC(C)Oc1nc(C)cc(C)c1S(=O)(=O)c1ccccc1C (stereo not given)	inconclusive [inhibitor, single point]
CN(C)CCCN1c2ccccc2Sc2ccc(C(F)(F)F)cc21	inconclusive [inhibitor, single point]
Cc1cc2[nH]c3c(c[n+](C)c4ccccc34)c2cc1C	inconclusive [activator, single point]
Cc1csc(SCc2nnc(-c3ccc(Cl)cc3)o2)n1	inconclusive [inhibitor, single point]

SMILES	Potency
COc1ccc(-c2cc(-c3cc(F)ccc3O)[nH]n2)cc1OC	inconclusive [inhibitor, partial curve]
O=c1[nH]c(=O)n(Cc2ccco2)c2c1C(C(F)(F)F)(C(F)(F)F)N=C(CCc1ccccc1)N2	inconclusive [inhibitor, single point]
Fc1ccc(CSc2nc3ncccc3[nH]2)cc1	inconclusive [inhibitor, single point]
CC(C)NC(=O)CSc1nc(-c2cccs2)cc(-c2ccccc2)c1C#N	active: 10 µM
CCCCCCCCCCCCCCCC[n+]1ccc(C(N)=O)cc1	inactive
CCOC(=O)C1=C(C)NC(C)=C(C(=O)OCC)C1/C=C/c1ccccc1OC	inconclusive [inhibitor, single point]
CCOc1ccc(-c2n[nH]c(C)c2Oc2ccccc2OC)c(O)c1	inconclusive [inhibitor, partial curve]
CC(=O)c1ccccc1NC(=O)CN1C(=O)CS/C1=C\c1nc(-c2ccc(C)cc2)cs1	inactive
CC1(C)Cc2c(C#N)c(N3CCN(C(=O)c4ccccc4Cl)CC3)nc(-c3ccco3)c2CS1	inconclusive [inhibitor, single point]
Cc1nc(N2CCN(Cc3ccc4c(c3)OCO4)CC2)nc2c1C(=O)CC(c1ccco1)C2 (stereo not given)	inconclusive [inhibitor, single point]
C=CCn1c(SCC(=O)NCc2ccc3c(c2)OCO3)nc2scc(-c3ccccc3)c2c1=O	inconclusive [inhibitor, single point]
CCN(CC)S(=O)(=O)c1ccc(N(C)Cc2ccc(C(F)(F)F)cc2)nc1	inconclusive [inhibitor, single point]
CC1CCc2c(nc3ncnn3c2N2CCN(c3ccccc3F)CC2)C1 (stereo not given)	inconclusive [inhibitor, single point]
Cc1cc(C)c(NC(=O)NC2CCCCC2)c(C)c1	inactive
Cc1ccc(NC(=O)CC2SC3=NCCN3C2=O)cc1 (stereo not given)	inconclusive [inhibitor, single point]
COc1ccc(/C=N/NC(=O)c2ccncc2)cc1CN1CCOCC1	inactive
COc1ccccc1-c1nc(C#N)c(N2CCC(Cc3ccccc3)CC2)o1	inconclusive [inhibitor, full curve, poor fit]
Cc1ccc(NC(=O)CSc2nnc(-c3cnccn3)n2-c2ccccc2)cc1	inconclusive [inhibitor, single point]
O=C(Nc1cc(=O)[nH]c2nc(-c3ccc(Cl)cc3)nn12)c1ccccc1	inconclusive [inhibitor, full curve, poor fit]
Cc1cccc(Nc2nnc(SC/C(O)=C(\C#N)c3nc4ccccc4[nH]3)s2)c1	inactive
Cc1ccc(C)c(Oc2cc(NC(=O)CCCn3nc(C)c([N+](=O)[O-])c3C)cc([N+](=O)[O-])c2)c1	inconclusive [inhibitor, single point]
CCCN1C(=O)/C(=C/c2nc3ccccc3c(=O)[nH]2)c2ccccc21	inactive
COC(=O)C(C)N(C(=O)c1cccc(Cl)c1)c1c(C)cccc1C (stereo not given)	inconclusive [inhibitor, single point]
COc1ccc2c(CN(C)c3ccccc3)cc(=O)oc2c1	inconclusive [inhibitor, full curve, poor fit]

SMILES	Potency
CCCCCOP(=O)(c1ccccc1)c1ccccc1	inactive
COc1cc(C(=O)Nc2ccc3c(c2)OCCO3)ccc1OC(C)C	inactive
COc1cccc(CNc2ccc(F)c(Cl)c2)c1O	active: 10 µM
COc1ccc(S(=O)(=O)N(C)C)cc1NC(=O)Cc1c[nH]c2ccccc12	inactive
COC(=O)C(CC(=O)c1ccc(Br)cc1)n1ccnc1 (stereo not given)	inactive
O=C(NC1CCCCC1)C(c1ccccn1)N(C(=O)Cc1cccs1)c1ccc(Cl)cc1 (stereo not given)	inconclusive [inhibitor, single point]
O=C(CSc1n[nH]c(=O)[nH]c1=O)N/N=C/c1ccccc1O	inactive
O=C(Nc1ccc2c(c1)OCCO2)C1CCN(C(=O)c2ccc([N+](=O)[O-])cc2)CC1	inactive
COc1ccc(C(=O)Nc2cc(C)c3c(=O)oc4ccccc4c3n2)cc1	inconclusive [inhibitor, single point]
C=C(C)COc1ccc(-c2[nH]ncc2-c2ccccc2OC)c(O)c1	inconclusive [inhibitor, single point]
CCOc1ccc(NC(=S)Nc2ccc3nsnc3c2)cc1	active: 10 µM
COc1ccc2[nH]c(=O)c(CN(CC3CCCO3)C(=S)Nc3cccc(C)c3)cc2c1 (stereo not given)	inconclusive [activator, full curve, poor fit]
CCn1c(SCC(=O)N2CCN(c3ccccc3)CC2)nnc1-c1ccncc1	inactive
O=C(NC(=S)Nc1ccc2c(c1)OCCO2)c1ccccc1F	inactive
CS(=O)(=O)c1nc(-c2ccc(F)cc2)cc(C(F)(F)F)n1	inconclusive [inhibitor, single point]
COc1cc(S(=O)(=O)Nc2ccc(C)cc2)ccc1N=Cc1c(C)c(C#N)c(=O)n(C)c1O	inconclusive [inhibitor, single point]
CC1=CC(C)(C)N(C(=O)C(C)N2C(=O)c3ccccc3C2=O)c2c(C)cc(C)cc21 (stereo not given)	inconclusive [inhibitor, partial curve]
O=C(Nc1ccc(Nc2ccccc2)cc1)N1CCOCC1	inconclusive [inhibitor, single point]
O=c1c2cc3c(nc2[nH]c(=S)n1-c1ccccc1)CCCC3	inconclusive [inhibitor, single point]
C=CCn1c2ccccc2c2nnc(SC(CC)C(=O)Nc3nc(C)c(C(=O)OCC)s3)nc21 (stereo not given)	inconclusive [inhibitor, partial curve]
COc1cc(C2NC(=O)C(C#N)=C(S)N2c2ccc(C)cc2)ccc1OC(C)C (stereo not given)	inconclusive [inhibitor, single point]
CN(Cc1cnccn1)Cc1nc(Cc2ccccc2Cl)no1	inactive
